Laboratory results from the supplement of paper PMC7266297.
Structures can show the parent of a compound that is named as a salt. The list shows a part of the results. Most values come without repeats; read them as rough.
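Further: Read-out is SRB optical density at 490 nm, with the control being wells given 0.5% DMSO vehicle, and compound added one day after cells were plated.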

Each molecule was assayed on KB-3-1 (assay: growth inhibition relative to DMSO control (SRB); cervical cancer cells: KB-3-1 is the parent and KB-V1 overexpresses MDR1; SRB is the sulforhodamine B stain; higher = more growth inhibition). Conditions: 1 µM; 72 h.
Molecule `C=C[C@@]1(C)CC(=O)[C@]2(O)[C@@]3(C)[C@@H](O)CCC(C)(C)[C@@H]3[C@H](O)[C@H](OC(C)=O)[C@@]2(C)O1` [Forskolin] has a growth inhibition of 26%.
Molecule `O=C(Nc1cccc(Cl)c1)c1ccccn1` has a growth inhibition of 21.4%.
Molecule `CCCC(C)NC(=O)c1ccc(Cl)c(Cl)c1` (stereo not given) has a growth inhibition of 29.4%.
`COc1cc2/c(=N/c3ccc(Br)cc3F)nc[nH]c2cc1OCC1CCN(C)CC1` [Vandetanib (ZD6474)] showed a growth inhibition of 67.5%.
Work on `COc1cc(OC)c(NC(=O)Nc2cc(C)on2)cc1Cl` yielded a growth inhibition of 21.6%.
`CO[C@H]1/C=C\C=C(/C)C(=O)NC2=CC(=O)C(NCCN(C)C)=C(C[C@@H](C)C[C@H](OC)[C@H](O)[C@@H](C)/C=C(\C)[C@@H]1OC(N)=O)C2=O` [17-DMAG (Alvespimycin) HCl] showed a growth inhibition of 90.8%.
For `C[C@]12CCC3=C4CCC(=O)C=C4CC[C@H]3[C@@H]1CC[C@@]2(O)CC#N` [Dienogest], the growth inhibition was 38.7%.
`CCC(=O)Nc1cccc(Oc2nc(Nc3ccc(N4CCN(C)CC4)cc3OC)ncc2Cl)c1` was tested, and the growth inhibition was under 0%.
`Nc1nc(OCc2cc(Br)cs2)c2[nH]cnc2n1` [Lomeguatrib] was tested, and the growth inhibition was 41.3%.
`CCN[C@H]1CN(CCCOC)S(=O)(=O)c2sc(S(N)(=O)=O)cc21` [Brinzolamide] was tested, and the growth inhibition was under 0%.
In the case of `C[C@@H]1CN(CC(=O)Nc2ccc3c(c2)Cc2cccc(-c4cc(=O)cc(N5CCOCC5)o4)c2S3)C[C@H](C)O1`, the growth inhibition is reported as 31.1%.
For `O=C(O)/C=C/c1ccc(Cn2ccnc2)cc1` [Ozagrel], the growth inhibition was 26.9%.
Molecule `COc1cc(N2CCC(N3CCN(C)CC3)CC2)ccc1Nc1ncc(Cl)c(Nc2ccccc2S(=O)(=O)C(C)C)n1` has a growth inhibition of 97.9%.
With `CN(C)CC[C@H](CSc1ccccc1)Nc1ccc(S(=O)(=O)NC(=O)c2ccc(N3CCN(Cc4ccccc4-c4ccc(Cl)cc4)CC3)cc2)cc1[N+](=O)[O-]` the growth inhibition was 30.4%.
`Cc1ccc(S(=O)(=O)n2c(N)nc3ccccc32)cc1` [ML130 (Nodinitib-1)] was tested, and the growth inhibition was 11.9%.
For `CNC(=O)c1ccc(C)c(-n2c(C)cc(OCc3ccc(F)cc3F)c(Br)c2=O)c1`, the growth inhibition was under 0%.
In the case of `O=C1C[C@@H](c2ccc(O)cc2)Oc2cc(O)cc(O)c21` [Naringenin], the growth inhibition is reported as under 0%.
Molecule `COc1cc(NC(=O)c2ccc(-c3ccc(Cl)cc3)o2)cc(OC)c1` has a growth inhibition of 5.56%.
For `COc1cc2ncnc(Sc3nnc(C)s3)c2cc1OC`, the growth inhibition was 24.6%.
Work on `COCC(=O)NC/C=C/c1ccc2ncnc(Nc3ccc(Oc4ccc(C)nc4)c(C)c3)c2c1` yielded a growth inhibition of 21.5%.
With `COc1ccc(-c2ccc3c(N4CCOCC4)nc(N4C[C@@H](C)O[C@@H](C)C4)nc3n2)cc1CO` the growth inhibition was 85.2%.
Work on `O=C(NOC[C@H](O)CO)c1ccc(F)c(F)c1Nc1ccc(I)cc1F` yielded a growth inhibition of 86%.
In the case of `O=C(NC[C@H]1CN(c2ccc(N3CCOCC3=O)cc2)C(=O)O1)c1ccc(Cl)s1` [Rivaroxaban], the growth inhibition is reported as under 0%.
For `Cn1c(=O)cc(N2CCC[C@@H](N)C2)n(Cc2ccccc2C#N)c1=O` [Alogliptin], the growth inhibition was 23%.
`COc1ccc2c(c1)c(CC(=O)OCC(=O)O)c(C)n2C(=O)c1ccc(Cl)cc1` [Acemetacin] showed a growth inhibition of 24.2%.
Work on `CCN(CC)CCCCNc1ncc2cc(-c3cc(OC)cc(OC)c3)c(NC(=O)NC(C)(C)C)nc2n1` yielded a growth inhibition of 18.8%.
Molecule `C=C1C(=O)O[C@H]2[C@H]1CC/C(C)=C/CC[C@@]1(C)O[C@@H]21` [(-)-Parthenolide] has a growth inhibition of 27.4%.
For `CC(C)(O)[C@H]1CC[C@@](C)([C@H]2[C@@H](O)C[C@@]3(C)[C@@H]4C[C@H](O[C@@H]5O[C@H](CO)[C@@H](O)[C@H](O)[C@H]5O)[C@H]5C(C)(C)[C@@H](O[C@@H]6OC[C@@H](O)[C@H](O)[C@H]6O)CC[C@@]56C[C@@]46CC[C@]23C)O1` [Astragaloside A], the growth inhibition was under 0%.
`CC(=O)c1cc([N+](=O)[O-])c(Sc2cccc(Cl)c2Cl)s1` showed a growth inhibition of under 0%.
`O=c1[nH]cnc2c1ncn2[C@H]1CC[C@@H](CO)O1` [Didanosine] gave a growth inhibition of 51%.
`Cc1c(C(=O)NN2CCCCC2)nn(-c2ccc(Cl)cc2Cl)c1-c1ccc(I)cc1` was tested, and the growth inhibition was 23.6%.
`CN1CCN(S(=O)(=O)c2ccc(-c3cnc(N)c(C(=O)Nc4cccnc4)n3)cc2)CC1` showed a growth inhibition of 11.7%.
`C=CC(=O)N1CCC[C@@H](n2nc(-c3ccc(Oc4ccccc4)cc3)c3c(N)ncnc32)C1` was tested, and the growth inhibition was under 0%.
In the case of `NCC(=O)Nc1ccc(-n2nc(C(F)(F)F)cc2-c2ccc3c(ccc4ccccc43)c2)cc1`, the growth inhibition is reported as 27.3%.
For `CCNC(=O)[C@H]1O[C@@H](n2cnc3c(N)nc(NCCc4ccc(CCC(=O)O)cc4)nc32)[C@H](O)[C@@H]1O`, the growth inhibition was under 0%.
